# From PubChem BioAssay AID504332 (National Center for Advancing Translational Sciences (NCATS), 2011)
# The campaign covered roughly 350,000 compounds. About 31,000 (8.9%) were called active. The inconclusive results got no clear call from the source; some entries with a clear call stand among them for comparison. Calls follow the shape of the dose curve; as a rule, active = well fitted inhibition curve with a large enough effect; inconclusive = small, poorly fitted or top-dose-only effect; inactive = no such curve, though single readings can be large or run the other way. A potency beside an inconclusive call is a rough fit, not a confirmed value.
# Target: Histone-lysine N-methyltransferase EHMT2 (Homo sapiens) (UniProt Q96KQ7)
# Chain of UniProt Q96KQ7 (Q96KQ7 whole entry, looked up): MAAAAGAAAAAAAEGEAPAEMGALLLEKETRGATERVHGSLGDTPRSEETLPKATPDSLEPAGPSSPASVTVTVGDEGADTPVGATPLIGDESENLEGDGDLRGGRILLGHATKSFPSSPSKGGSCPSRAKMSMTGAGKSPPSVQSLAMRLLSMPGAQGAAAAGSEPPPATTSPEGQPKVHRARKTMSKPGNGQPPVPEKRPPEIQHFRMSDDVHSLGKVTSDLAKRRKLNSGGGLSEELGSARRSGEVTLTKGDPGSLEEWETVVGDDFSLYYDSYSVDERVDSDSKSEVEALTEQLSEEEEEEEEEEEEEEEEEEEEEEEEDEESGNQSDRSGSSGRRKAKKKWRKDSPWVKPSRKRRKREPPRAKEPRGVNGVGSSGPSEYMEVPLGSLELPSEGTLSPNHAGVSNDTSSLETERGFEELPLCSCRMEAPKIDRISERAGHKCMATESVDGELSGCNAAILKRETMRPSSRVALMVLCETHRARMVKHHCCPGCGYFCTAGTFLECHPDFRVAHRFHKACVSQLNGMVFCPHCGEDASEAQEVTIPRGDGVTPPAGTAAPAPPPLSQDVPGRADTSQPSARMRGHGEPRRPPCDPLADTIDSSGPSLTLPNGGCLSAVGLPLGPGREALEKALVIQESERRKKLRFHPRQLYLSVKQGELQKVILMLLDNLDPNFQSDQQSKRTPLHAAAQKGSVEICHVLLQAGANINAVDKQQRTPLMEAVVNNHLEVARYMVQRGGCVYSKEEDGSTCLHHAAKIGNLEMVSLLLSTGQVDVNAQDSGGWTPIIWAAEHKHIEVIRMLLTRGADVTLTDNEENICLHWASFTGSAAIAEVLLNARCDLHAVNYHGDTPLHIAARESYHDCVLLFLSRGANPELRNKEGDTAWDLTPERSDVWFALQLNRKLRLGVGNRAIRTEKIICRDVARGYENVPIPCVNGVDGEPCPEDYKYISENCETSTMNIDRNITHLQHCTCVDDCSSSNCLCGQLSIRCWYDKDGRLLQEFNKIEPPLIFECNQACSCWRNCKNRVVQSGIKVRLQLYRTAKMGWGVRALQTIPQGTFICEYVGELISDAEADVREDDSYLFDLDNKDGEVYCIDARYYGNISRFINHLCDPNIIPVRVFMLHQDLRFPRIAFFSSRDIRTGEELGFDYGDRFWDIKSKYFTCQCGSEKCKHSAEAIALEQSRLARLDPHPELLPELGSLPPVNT
# Experiment: qHTS Assay for Inhibitors of Histone Lysine Methyltransferase G9a; also: nearly all actives have a fitted effect of over 75% in size
# Conditions: G9a H3K9 monomethylation, AlphaScreen, 2 h; activity, negative = inhibition: at 59 µM (top of the series) unless noted
# Method in brief: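 Signal arises when biotinylated H3K9 peptide, once monomethylated, bridges streptavidin donor and antibody-captured acceptor beads. Enzyme at 20 nM was preincubated 15 min with test compounds; peptide 500 nM and SAM 20 uM then reacted for 2 h.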
# % is scaled to controls: 0 for no effect and ±100 for the full control effect; potency is read from the fitted curve at half-maximal effect; tags tell the direction and shape of the fitted curve.
Compound,Potency,"activity, negative = inhibition"
CC1=C(C(=O)Nc2cc(-c3cccc(F)c3)[nH]n2)C2(CCCCC2)OC1=O,"inconclusive: 22.4 µM [inhibitor, single point]",–
COc1ccc(CC(=O)Nc2c3c(nn2C(C)(C)C)CS(=O)(=O)C3)cc1OC,"inconclusive: 50.1 µM [inhibitor, partial curve, poor fit]",–
C/C(=C\c1ccccc1)C(=O)n1nnc2ccccc21,"inconclusive: 89.1 µM [inhibitor, single point]",–
Cc1cccc(C)c1NC(=S)N1CCC(c2ccccc2)C1 (stereo not given),inactive,–
CCOc1ccccc1N(CC)C(=O)c1cc2c(=O)[nH]c3ccc(C)cc3c2s1,inactive,–
O=C(NCCCn1ccnc1)Nc1ccc(Cl)c(Cl)c1,inactive,–
CSc1ccccc1C(=O)NCCSc1ccc(C)cc1,inactive,–
Cc1oc(S(=O)(=O)N(C)C)cc1C(=O)Nc1ccc(Cl)cc1,"inconclusive: 79.4 µM [inhibitor, single point]",–
CSCCC(NC(=O)c1ccc(Cl)cc1Cl)C(=O)OC(C)C(=O)NCc1ccco1 (stereo not given),"inconclusive: 39.8 µM [inhibitor, partial curve, poor fit]",–
CCOC(=O)C(C)Sc1nnc(Cc2cc(=O)[nH]c(=O)[nH]2)n1-c1ccc(OCC)cc1 (stereo not given),"inconclusive: 89.1 µM [inhibitor, single point]",–
COc1ccccc1NC(=O)Nc1ccc(C)cn1,"inconclusive: 39.8 µM [inhibitor, single point]",–
O=C(Nc1ccc(Br)cc1)c1cc(Br)c(Br)s1,–,inactive: -51% [at 12.7 µM]
COc1cccc(-c2nn(-c3ccccc3)cc2CN(C)Cc2ccon2)c1,inactive,–
O=C(O)[C@@H](S)[C@H](S)C(=O)O,active: 6.31 µM,–
COc1cc(-c2csc(NC3CCCCC3)n2)cc(OC)c1OC,active: 25.1 µM,–
CC1C/C(=N\NC(=S)NCc2ccccc2)CC(C)(C)C1 (stereo not given),"inconclusive: 39.8 µM [inhibitor, single point]",–
COc1ccc(CN2CCN(S(=O)(=O)c3ccccc3)CC2)cc1Br,active: 12.6 µM,–
Cc1nc(Nc2ccc(Cl)cc2Cl)sc1C(=O)Nc1ccccc1,inactive,–
Cc1cc(C(=O)Nc2ccccc2N2CCOCC2)c2ccccc2n1,"inconclusive: 89.1 µM [inhibitor, partial curve, poor fit]",–
Nc1cc(S(=O)(=O)Nc2cc(Cl)ccc2Cl)ccc1N1CCOCC1,active: 11.2 µM,–
Clc1cccc(-n2ncc3c(N4CCCCC4)ncnc32)c1,inactive,–
COc1ccc(C2(CNC(=O)/C=C\c3ccco3)CCCC2)cc1OC,active: 12.6 µM,–
O=C(Cn1cc(S(=O)(=O)Cc2cccc(Cl)c2)c2ccccc21)NCCc1ccccc1,inactive,–

Compound,Potency,"activity, negative = inhibition"
N=c1c(C(=O)NCC2CCCO2)cc2c(=O)n3ccccc3nc2n1Cc1ccco1 (stereo not given),"inconclusive: 89.1 µM [inhibitor, single point]",–
COc1ccc(NC(=O)N2CCN(c3ccc([N+](=O)[O-])cc3)CC2)cc1OC,"inconclusive: 10 µM [inhibitor, partial curve, poor fit]",–
CCCn1c(SCC(=O)Nc2cc(S(=O)(=O)N3CCOCC3)ccc2Cl)n[nH]c1=O,"inconclusive: 89.1 µM [inhibitor, single point]",–
CC(C)N1CCC(N2CCN(Cc3cccnc3)CC2CCO)CC1 (stereo not given),"inconclusive: 50.1 µM [inhibitor, partial curve, poor fit]",–
COc1ccc(NC(C)c2cc(Cl)ccc2O)cc1 (stereo not given),"inconclusive: 2.82 µM [inhibitor, partial curve, poor fit]",–
Cc1ccc(S(=O)(=O)Nc2c(O)c3ccccc3oc2=O)cc1,active: 28.2 µM,–
COc1ccc(N(C)C(=O)C2CCN(S(=O)(=O)c3cccc4nonc34)CC2)c(OC)c1,"inconclusive: 79.4 µM [inhibitor, single point]",–
COC(=O)c1c(NC(=O)COC(=O)c2ccc(NC(=O)CC#N)cc2)sc2c1CCCCC2,inactive,–
O=C(CSc1nnc(-c2cccs2)n1Cc1ccccc1)N1CCc2ccccc2C1,"inconclusive: 0.501 µM [inhibitor, full curve, poor fit]",–
COc1ccc(N2CCN(CC(=O)N3CCC(C)CC3)CC2)cc1,"inconclusive: 89.1 µM [inhibitor, single point]",–
CNC(=O)C1C(=S)NC(N)=C(C#N)C1c1ccccc1 (stereo not given),active: 12.6 µM,–
Cc1ccccc1NC(=O)CNc1ccc(Cl)c(C(F)(F)F)c1,"inconclusive: 44.7 µM [inhibitor, partial curve, poor fit]",–
COC(=O)CSC1=C(C#N)C(c2ccc(F)cc2)CC(=O)N1 (stereo not given),"inconclusive: 89.1 µM [inhibitor, single point]",–
CN(Cc1ccccc1)CC(O)COc1ccc(CNCc2ccc(Cl)s2)cc1 (stereo not given),"inconclusive: 31.6 µM [inhibitor, partial curve, poor fit]",–
COc1ccc(CN2CCNC(=O)C2CC(=O)N(C)Cc2nccs2)c(OC)c1 (stereo not given),inactive,–
COc1ccc(N(Cc2cc3ccc(C)cc3[nH]c2=O)C(=O)c2ccco2)cc1,active: 70.8 µM,–
O=c1c2ccccc2cnn1Cc1n[nH]c(=S)n1-c1ccc(Cl)cc1Cl,"inconclusive: 7.08 µM [inhibitor, full curve, poor fit]",–
COc1cccc(C(=O)OCC(=O)c2ccc(Br)s2)c1OC,"inconclusive: 0.282 µM [inhibitor, full curve, poor fit]",–
O=C(NN1C(=O)/C(=C\c2cccnc2)SC1=S)c1ccco1,"inconclusive: 89.1 µM [inhibitor, single point]",–
Cc1ccccc1C(=O)N1CCC(C(=O)Nc2ccc(S(=O)(=O)N3CCCC3)cc2)CC1,"inconclusive: 3.55 µM [inhibitor, partial curve, poor fit]",–
Cc1cccc(N2CCN(C(=O)c3ccc4c(c3)N(Cc3cccc(Cl)c3)C(=O)c3ccccc3S4=O)CC2C)c1 (stereo not given),"inconclusive: 10 µM [inhibitor, partial curve, poor fit]",–
COc1cccc(Cn2c(=O)c(-c3cn(C)c4ccccc34)nc3cnc(OC)nc32)c1,–,inactive: -3.93% [at 0.501 µM]
